Results from PubChem BioAssay AID488969 (Vanderbilt High Throughput Screening Facility, 2010).
Whole data set: some 110,000 compounds, median “z-score” near -0.1, cut for the highest 2% near 2. Some of the results follow. Calls of active or inactive are those of the source.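 Rule for the calls: active = z-score in the third read window above 3 or below -3; inactive = the rest.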

biological target: Metabotropic glutamate receptor 8 (Rattus norvegicus) (UniProt P70579); experiment: rat mGluR8 modulators via GIRK flux, primary screen, cell-based, thallium flux, HTS (AID 488969); details: HEK293 rat mGluR8, GIRK (G protein-gated inwardly rectifying potassium channel) thallium flux, FluoZin2; at 10 µM; stronger effect = higher value; submaximal glutamate (EC20) added with thallium
Chain of UniProt P70579 (P70579 whole entry, looked up): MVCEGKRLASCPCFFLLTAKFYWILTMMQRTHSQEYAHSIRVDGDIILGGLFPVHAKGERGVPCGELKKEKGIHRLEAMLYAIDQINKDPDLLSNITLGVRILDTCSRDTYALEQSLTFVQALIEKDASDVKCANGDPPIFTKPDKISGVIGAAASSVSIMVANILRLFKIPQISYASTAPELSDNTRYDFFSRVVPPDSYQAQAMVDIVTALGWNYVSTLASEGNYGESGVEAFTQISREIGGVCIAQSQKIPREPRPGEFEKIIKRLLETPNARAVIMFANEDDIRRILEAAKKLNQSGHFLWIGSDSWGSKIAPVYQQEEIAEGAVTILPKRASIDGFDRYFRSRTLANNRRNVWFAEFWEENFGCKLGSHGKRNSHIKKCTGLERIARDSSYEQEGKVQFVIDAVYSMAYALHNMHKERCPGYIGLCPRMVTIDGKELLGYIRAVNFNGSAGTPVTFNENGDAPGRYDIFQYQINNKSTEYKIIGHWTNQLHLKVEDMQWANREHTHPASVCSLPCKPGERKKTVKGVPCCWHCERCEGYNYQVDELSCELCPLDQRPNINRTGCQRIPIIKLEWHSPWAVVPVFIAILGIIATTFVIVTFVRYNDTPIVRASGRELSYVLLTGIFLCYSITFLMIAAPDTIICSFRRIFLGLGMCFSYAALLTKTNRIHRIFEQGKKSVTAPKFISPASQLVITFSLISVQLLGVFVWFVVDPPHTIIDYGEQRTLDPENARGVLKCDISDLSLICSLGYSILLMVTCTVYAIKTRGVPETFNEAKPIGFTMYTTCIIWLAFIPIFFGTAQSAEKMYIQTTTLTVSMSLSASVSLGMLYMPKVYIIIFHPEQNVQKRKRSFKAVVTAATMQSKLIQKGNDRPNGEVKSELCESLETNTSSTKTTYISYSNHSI

Compound | z-score
Cc1cccc(N2CCN(C(=O)C(C)C)CC2)c1C | 0.0205
CCCCOC(=O)Cn1c(=O)n(CC(=O)OCCCC)c2cc(C)ccc21 | 0.161
Cc1cc(C)c2nc(N3CCCC(C(=O)NCCN4CCOCC4)C3)sc2c1 (stereo unspecified) | -1.3
CC(=O)N1CCc2cc(C(=O)CN3CCCN(Cc4ccc(F)cc4)C3)ccc21 | 0.249
S=C(NCc1ccccn1)Nc1ccc(Cl)c(Cl)c1 | -0.494
COc1nc2ccccc2c(=O)n1OCC(C)C | 0.0226
O=S(=O)(Nc1ccc(-n2cccc2)cc1)c1ccccc1 | -0.0716
COC(=O)C1=C(O)/C(=C\c2cc(C)n(-c3ccccc3C)c2C)N=C1C | -0.389
COc1ccc(C(=O)Nc2ccc(S(=O)(=O)NCc3ccco3)cc2)cc1OC | active: 3.13
Cn1c(=O)[nH]c(=O)c2c1nc(N1CCOCC1)n2CCCSc1ncccn1 | -0.178
CCCCCNCc1ccc(Br)cc1 | -0.224
Cc1ccc(S(=O)(=O)N(CC(=O)N2CCC(C(N)=O)CC2)Cc2ccc(F)cc2)cc1 | 1.01
Cc1sc2nc(NCCO)[nH]c(=O)c2c1C | 0.606
CC1CCN(C2=NC(=O)/C(=C/c3cn(-c4ccccc4)nc3-c3cccc(S(=O)(=O)N(C)C)c3)S2)CC1 | 0.0819
CCOC(=O)c1cccc(Nc2ncnc3ccccc23)c1 | -0.0839
C=CCn1c(SCC(=O)NCC2CCCO2)nnc1C1CCCCC1 (stereo unspecified) | 1.34

Compound | z-score
Cc1cc(Cl)c(S(=O)(=O)N2CCCCCC2)cc1OCC(N)=O | 1.66
CC(=NC(C)C)C1=C(O)C(C)OC1=O (stereo unspecified) | -0.0446
COc1cccc(/C=N/NC(=O)CCCC(=O)Nc2ccc(Br)cc2)c1 | -0.166
COC(=O)c1cc(/C=C/c2ccccc2)on1 | -1.23
COc1ccc(N(C(=O)c2ccco2)S(=O)(=O)c2cccs2)cc1 | -0.713
COc1ccc(NS(=O)(=O)c2ccc(O)c(NC(=O)c3ccc(S(=O)(=O)N4CCCCCC4)cc3)c2)cc1 | 0.0959
CCCCN(CCCC)C(=S)N/N=C/c1c(C)[nH]n(-c2ccccc2)c1=O | active: 10.4
Cc1ccc(NC(=O)CN(C)C(=O)CN2C(=O)NC(C)(c3ccccc3)C2=O)cc1 (stereo unspecified) | 0.797
O=C(O)c1ccccc1-c1ccccc1C(=O)NCCCO | -0.333
O=C(/C=C/c1ccc(Cl)cc1Cl)n1cccn1 | -0.586
O=C(CSc1nccn1-c1ccc(Cl)cc1)NCc1ccc2c(c1)OCO2 | -0.413
Cc1nn(Cc2ccc(F)cc2)c(C)c1NC(=O)c1cnn2cccnc12 | -0.449
CS(=O)(=O)NCC(c1cccnc1)N1CCN(c2ccc(F)cc2)CC1 (stereo unspecified) | -0.636
CC(C)(C)/C(O)=C(/C#N)c1nc2ccccc2[nH]1 | -0.0828
CCCOc1cc(C)c(S(=O)(=O)NCCOC)cc1C | 1.15
